Test results published in the supplement of paper PMC4604168 (melanoma cell lines).
This is one part of the list. Single values are uncertain, as repeats are few or missing.

test system: SkMel2; assay: cell count relative to DMSO control; melanoma cells; higher = more viable cells; details: library dose: standard library concentration; 72 h
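Further: cells treated in 1,536-well plates, then fixed and DAPI-stained, with nuclei counted from automated high-throughput microscope images.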

SMILES	cell count [%]
C[C@]12O[C@H](C[C@]1(O)CO)n1c3ccccc3c3c4c(c5c6ccccc6n2c5c31)CNC4=O [Lestaurtinib] + O=C(Nc1cccc(Cl)c1)Nc1ncc(CCNc2ncnc3ccsc23)s1 [SNS314] (first compound 0.02 µM, partner dose 0.004 µM)	105
N.N.[Cl][Pt][Cl] [cisplatin] + CO[C@H]1C[C@@H]2CC[C@@H](C)[C@@](O)(O2)C(=O)C(=O)N2CCCC[C@H]2C(=O)O[C@H]([C@H](C)C[C@@H]2CC[C@@H](OCCO)[C@H](OC)C2)CC(=O)[C@H](C)/C=C(\C)[C@@H](O)[C@@H](OC)C(=O)[C@H](C)C[C@H](C)/C=C/C=C/C=C/1C [everolimus] (first compound 8 µM, partner dose 0.1 µM)	62.8
C[C@]12O[C@H](C[C@]1(O)CO)n1c3ccccc3c3c4c(c5c6ccccc6n2c5c31)CNC4=O [Lestaurtinib] + NC(=O)Nc1cc(-c2cccc(F)c2)sc1C(=O)N[C@H]1CCCNC1 [AZD7762] (first compound 0.02 µM, partner dose 0.1 µM)	76.3
C[As](C)SC[C@H](NC(=O)CC[C@H](N)C(=O)O)C(=O)NCC(=O)O [Darinaparsin] + Oc1nc(-c2ccc(C(F)(F)F)cc2)nc2c1CSCC2 [XAV939] (first compound 2 µM, partner dose 10 µM)	107
C[As](C)SC[C@H](NC(=O)CC[C@H](N)C(=O)O)C(=O)NCC(=O)O [Darinaparsin] + COc1ccc2c(c1)CCC1C2CCC2(C)C(NCCCCCCN3C(=O)C=CC3=O)CCC12 [U73122] (first compound 2 µM, partner dose 2 µM)	88.2
C[C@]12O[C@H](C[C@]1(O)CO)n1c3ccccc3c3c4c(c5c6ccccc6n2c5c31)CNC4=O [Lestaurtinib] + O=C(O)c1ccc(-c2c[nH]c3ncc(-c4ccccc4)cc23)cc1C1CCCC1 [GSK650394] (first compound 0.02 µM, partner dose 0.8 µM)	105
Cn1cc(C2=C(c3cn(C4CCN(Cc5ccccn5)CC4)c4ccccc34)C(=O)NC2=O)c2ccccc21 [Enzastaurin] + C=C(c1ccc(C(=O)O)cc1)c1cc2c(cc1C)C(C)(C)CCC2(C)C [Bexarotene] (first compound 4 µM, partner dose 10 µM)	63.1
N.N.[Cl][Pt][Cl] [cisplatin] + CO[C@@H]1[C@H](N(C)C(=O)c2ccccc2)C[C@H]2O[C@]1(C)n1c3ccccc3c3c4c(c5c6ccccc6n2c5c31)C(=O)NC4 [Midostaurin] (first compound 8 µM, partner dose 0.4 µM)	51.2
Cn1cc(C2=C(c3cn(C4CCN(Cc5ccccn5)CC4)c4ccccc34)C(=O)NC2=O)c2ccccc21 [Enzastaurin] + CNC(=O)c1cc(Oc2ccc(NC(=O)Nc3ccc(Cl)c(C(F)(F)F)c3)cc2)ccn1 [sorafenib] (first compound 4 µM, partner dose 2 µM)	57.3
Cn1cc(C2=C(c3cn(C4CCN(Cc5ccccn5)CC4)c4ccccc34)C(=O)NC2=O)c2ccccc21 [Enzastaurin] + CC(C)C[C@H](NC(=O)[C@H](Cc1ccccc1)NC(=O)c1cnccn1)B(O)O [Bortezomib] (first compound 4 µM, partner dose 0.005 µM)	16.2
Cn1cc(C2=C(c3cn(C4CCN(Cc5ccccn5)CC4)c4ccccc34)C(=O)NC2=O)c2ccccc21 [Enzastaurin] + Cc1cc(Nc2cc(N3CCN(C)CC3)nc(/C=C/c3ccccc3)n2)n[nH]1 [ENMD2076] (first compound 4 µM, partner dose 0.2 µM)	52.7
C[As](C)SC[C@H](NC(=O)CC[C@H](N)C(=O)O)C(=O)NCC(=O)O [Darinaparsin] + Cn1cc(/C=C2\C(=O)Nc3cccnc32)c2ccccc21 [GW441756] (first compound 2 µM, partner dose 2 µM)	104
C[As](C)SC[C@H](NC(=O)CC[C@H](N)C(=O)O)C(=O)NCC(=O)O [Darinaparsin] + CC(C)(C)c1cnc(CSc2cnc(NC(=O)C3CCNCC3)s2)o1 [SNS-032] (first compound 2 µM, partner dose 0.05 µM)	73.3
N.N.[Cl][Pt][Cl] [cisplatin] + CS(=O)(=O)CCNCc1ccc(-c2ccc3ncnc(Nc4ccc(OCc5cccc(F)c5)c(Cl)c4)c3c2)o1 [lapatinib] (first compound 8 µM, partner dose 4 µM)	138
C[C@]12O[C@H](C[C@]1(O)CO)n1c3ccccc3c3c4c(c5c6ccccc6n2c5c31)CNC4=O [Lestaurtinib] + C[C@]1(c2nc3c(C(N)=O)cccc3[nH]2)CCCN1 [Veliparib] (first compound 0.02 µM, partner dose 7 µM)	115
Cn1cc(C2=C(c3cn(C4CCN(Cc5ccccn5)CC4)c4ccccc34)C(=O)NC2=O)c2ccccc21 [Enzastaurin] + CN1CCN(c2ccc3nc(-c4c(N)c5c(F)cccc5[nH]c4=O)[nH]c3c2)CC1 [Dovitinib] (first compound 4 µM, partner dose 0.5 µM)	46.4
Cn1cc(C2=C(c3cn(C4CCN(Cc5ccccn5)CC4)c4ccccc34)C(=O)NC2=O)c2ccccc21 [Enzastaurin] + C[C@@H](Oc1cc(-c2cnn(C3CCNCC3)c2)cnc1N)c1c(Cl)ccc(F)c1Cl [Crizotinib] (first compound 4 µM, partner dose 1 µM)	50.7
C[As](C)SC[C@H](NC(=O)CC[C@H](N)C(=O)O)C(=O)NCC(=O)O [Darinaparsin] + Cc1cc(SCc2sc(-c3ccc(C(F)(F)F)c(F)c3)nc2C)ccc1OCC(=O)O [GW0742] (first compound 2 µM, partner dose 10 µM)	100
C[C@]12O[C@H](C[C@]1(O)CO)n1c3ccccc3c3c4c(c5c6ccccc6n2c5c31)CNC4=O [Lestaurtinib] + O=C(O)c1ccc2c(c1)nc(Nc1cccc(Cl)c1)c1ccncc12 [CX4945] (first compound 0.02 µM, partner dose 2 µM)	85.4
N.N.[Cl][Pt][Cl] [cisplatin] + Clc1ccc(Nc2nnc(Cc3ccncc3)c3ccccc23)cc1 [vatalanib] (first compound 8 µM, partner dose 10 µM)	95.2
Cn1cc(C2=C(c3cn(C4CCN(Cc5ccccn5)CC4)c4ccccc34)C(=O)NC2=O)c2ccccc21 [Enzastaurin] + COc1cc(Nc2ncc(F)c(Nc3ccc4c(n3)NC(=O)C(C)(C)O4)n2)cc(OC)c1OC [Tamatinib] (first compound 4 µM, partner dose 2 µM)	62.2
N.N.[Cl][Pt][Cl] [cisplatin] + COc1cc(Nc2ncc(F)c(Nc3ccc4c(n3)NC(=O)C(C)(C)O4)n2)cc(OC)c1OC [Tamatinib] (first compound 8 µM, partner dose 2 µM)	83.9
C[C@]12O[C@H](C[C@]1(O)CO)n1c3ccccc3c3c4c(c5c6ccccc6n2c5c31)CNC4=O [Lestaurtinib] + Nc1ncn([C@H]2C[C@H](O)[C@@H](CO)O2)c(=O)n1 [decitabine] (first compound 0.02 µM, partner dose 0.5 µM)	92
C[As](C)SC[C@H](NC(=O)CC[C@H](N)C(=O)O)C(=O)NCC(=O)O [Darinaparsin] + CCc1ccc(CCOc2ccc(CC3SC(=O)NC3=O)cc2)nc1 [pioglitazone] (first compound 2 µM, partner dose 10 µM)	79.5
C[As](C)SC[C@H](NC(=O)CC[C@H](N)C(=O)O)C(=O)NCC(=O)O [Darinaparsin] + O=C1NC(=O)/C(=C/c2ccc(-c3ccc(F)cc3O)o2)S1 [AS252424] (first compound 2 µM, partner dose 5 µM)	78.7
C[C@]12O[C@H](C[C@]1(O)CO)n1c3ccccc3c3c4c(c5c6ccccc6n2c5c31)CNC4=O [Lestaurtinib] + COc1ccc(Cl)c(Nc2nc3ccccc3nc2NS(=O)(=O)c2cccc(NC(=O)C(C)(C)N)c2)c1 [XL147] (first compound 0.02 µM, partner dose 4 µM)	125
Cn1cc(C2=C(c3cn(C4CCN(Cc5ccccn5)CC4)c4ccccc34)C(=O)NC2=O)c2ccccc21 [Enzastaurin] + OCc1c[nH]c2ccccc12 [Indole-3-carbinol] (first compound 4 µM, partner dose 4 µM)	139
C[As](C)SC[C@H](NC(=O)CC[C@H](N)C(=O)O)C(=O)NCC(=O)O [Darinaparsin] + O=c1cc(-c2cccc3c2Sc2ccccc2S3)oc(N2CCOCC2)c1 [KU55933] (first compound 2 µM, partner dose 5 µM)	80.7
Cn1cc(C2=C(c3cn(C4CCN(Cc5ccccn5)CC4)c4ccccc34)C(=O)NC2=O)c2ccccc21 [Enzastaurin] + Cc1cc(N2CCOCC2)cc2[nH]c(-c3c(NC[C@@H](O)c4cccc(Cl)c4)cc[nH]c3=O)nc12 [BMS536924] (first compound 4 µM, partner dose 1 µM)	74.4
Cn1cc(C2=C(c3cn(C4CCN(Cc5ccccn5)CC4)c4ccccc34)C(=O)NC2=O)c2ccccc21 [Enzastaurin] + NC(=O)Nc1cc(-c2cccc(F)c2)sc1C(=O)N[C@H]1CCCNC1 [AZD7762] (first compound 4 µM, partner dose 0.1 µM)	72
